Melting point data for 1 compound are collected here from patent US8673940B2, “Compounds for the treatment of diseases associated with amyloid or amyloid-like proteins” (AC Immune SA, priority 2006, dated 2014).

Structures are written as SMILES. Where a name gives a salt, the structure may show the parent alone. Read-outs that look alike come from different tables or passages of the source. Entries with a single value are a further part of the results.

For orientation: melting point means the temperature of the solid-liquid transition. On to `Fc1ccc(-c2cc(NCc3cccc(NCc4ccccc4)n3)n[nH]2)cc1` (as salt: hydrochloride) [Compound 2t, N-Benzyl-6-((5-(4-fluorophenyl)-1H-pyrazol-3-ylamino)methyl)pyridin-2-amine], for which the melting point (free base) is 117 to 118 °C and the melting point (hydrochloride salt) lay in the range of 133 to 134 °C.
